According to paper PMC4336329 (PLoS ONE, 2015):
The campaign covered roughly 310,000 compounds. About 2,200 (0.71%) showed an effect of 50% or more. Effects have a minus sign here. The list shows a part of the results.

Target: human ether-à-go-go-related gene (hERG) potassium channel (human, UniProt Q12809)
Test: primary screen, population patch clamp on CHO cells stably expressing hERG

Sequence of human ether-à-go-go-related gene (hERG) potassium channel (Q12809 whole entry, looked up): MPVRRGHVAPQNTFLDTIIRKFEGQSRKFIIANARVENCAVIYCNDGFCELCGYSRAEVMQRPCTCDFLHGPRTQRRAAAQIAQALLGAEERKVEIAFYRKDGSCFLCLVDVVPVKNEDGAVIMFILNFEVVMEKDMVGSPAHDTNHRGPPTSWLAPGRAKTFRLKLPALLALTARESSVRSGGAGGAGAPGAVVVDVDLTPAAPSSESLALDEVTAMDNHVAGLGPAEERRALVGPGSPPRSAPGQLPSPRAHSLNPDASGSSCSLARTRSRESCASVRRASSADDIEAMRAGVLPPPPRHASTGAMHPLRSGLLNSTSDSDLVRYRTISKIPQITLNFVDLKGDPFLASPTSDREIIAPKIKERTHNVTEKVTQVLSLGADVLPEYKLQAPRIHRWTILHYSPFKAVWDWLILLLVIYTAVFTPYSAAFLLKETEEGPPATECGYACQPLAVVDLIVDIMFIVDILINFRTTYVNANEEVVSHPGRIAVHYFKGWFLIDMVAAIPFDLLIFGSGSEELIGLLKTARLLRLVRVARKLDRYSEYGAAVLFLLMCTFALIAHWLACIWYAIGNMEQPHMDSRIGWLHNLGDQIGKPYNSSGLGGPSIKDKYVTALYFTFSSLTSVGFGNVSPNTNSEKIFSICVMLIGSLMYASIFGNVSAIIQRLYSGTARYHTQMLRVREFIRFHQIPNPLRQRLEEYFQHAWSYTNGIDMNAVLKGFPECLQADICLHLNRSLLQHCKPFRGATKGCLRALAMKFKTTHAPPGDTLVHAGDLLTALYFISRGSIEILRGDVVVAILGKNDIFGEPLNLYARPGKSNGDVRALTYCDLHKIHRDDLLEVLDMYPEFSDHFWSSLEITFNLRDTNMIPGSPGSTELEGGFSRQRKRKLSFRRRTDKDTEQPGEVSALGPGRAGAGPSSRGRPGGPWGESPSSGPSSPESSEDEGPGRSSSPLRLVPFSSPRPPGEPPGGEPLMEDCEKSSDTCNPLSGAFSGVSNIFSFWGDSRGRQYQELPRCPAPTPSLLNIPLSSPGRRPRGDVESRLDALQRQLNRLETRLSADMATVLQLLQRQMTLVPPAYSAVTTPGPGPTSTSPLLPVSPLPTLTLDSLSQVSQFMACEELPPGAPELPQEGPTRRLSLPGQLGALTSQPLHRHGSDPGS

Structure (SMILES)	hERG current change (%, negative = inhibition) at 1uM
CCc1cccc(C)c1NC(=S)N1CC2CC(C1)c1cccc(=O)n1C2 (stereo not shown)	14.3%
Cn1c(O)c(/C=N/N2CCOCC2)c(=O)n(-c2ccccc2)c1=S	13.5%
COc1ccccc1CC(=O)Nc1ccc(-c2noc(COc3ccc(Cl)c(C)c3)n2)cc1	10.4%
O=C(NCc1ccco1)c1ccc2c(=O)n(Cc3ccco3)c(SCC(=O)N3CCCC3)nc2c1	-66.9%
COCc1nnc(NS(=O)(=O)c2ccc(NC(C)=O)cc2)s1	6.79%
CC(C)CNC(=O)CC(=O)N/N=C/c1ccc(F)cc1	-1.92%
COc1ccc(-c2nnc(-c3ccccc3)o2)cc1OC	-1.19%
COc1ccc(NC(=S)N2CCCC(CO)C2)c(OC)c1 (stereo not shown)	2.52%
COCCCNC(=S)NCCCNc1nc2cc(C)cc(C)c2cc1C#N	14.1%
O=S(=O)(c1ccccc1)N1CCN(S(=O)(=O)N2CCCCCC2)CC1	9.54%
CCOc1ccc(S(=O)(=O)NCC2CCCO2)c2ccccc12 (stereo not shown)	4.4%
S=C(NCCc1ccccc1)NCC(c1ccco1)N1CCCCC1 (stereo not shown)	8.71%
CS/C(=N\S(=O)(=O)c1cccs1)Nc1ccc(Br)cc1F	7.34%
CCOC(=O)CSc1nc2cc(C(=O)N3CCCC3)ccc2c(=O)n1Cc1ccccc1	-0.163%
COCCNC(=O)CCn1c(=O)oc2ccccc21	9.29%
CCOC(=O)c1c(NC(=O)C2=C(C)NC(=S)NC2c2ccccc2C(F)(F)F)sc(C)c1C (stereo not shown)	8.4%
COc1cccc(OC)c1C(=O)Nc1ccc2c3c(cccc13)CC2	0.28%
CCOc1ccc(OCC)c(NC(=O)CC2Oc3ccc(C)cc3NC2=O)c1 (stereo not shown)	7.22%
Cc1c(C)n(C)c2ccc(C(=O)NCCCN3CCCC3)cc12	-7.58%
C=CCOc1ccc2ccccc2c1/C=N/O	12.1%
CN1C(=O)CSc2ccc(NC(=O)N3CCN(c4ccccn4)CC3)cc21	2.16%
C/C(=N/NS(=O)(=O)c1cc(C)ccc1C)c1ccc2c(c1)OCO2	11.3%

Structure (SMILES)	hERG current change (%, negative = inhibition) at 1uM
COc1cc(C(=O)Nc2ccc(Cl)c(C(F)(F)F)c2)cc(OC)c1OC	11.2%
Cc1cc2ccccn2c1C(C[N+](=O)[O-])c1c(F)cccc1Cl (stereo not shown)	16.1%
CSc1ccc(C(=O)N2CCc3ccc(NC(=O)c4ccccn4)cc3C2)cc1	14.4%
Cc1nn(-c2ccc(C(=O)O)cc2)c(N)c1-c1ccccc1	13.6%
Cc1ccc2c(c1)N(C(C)C(=O)NCc1ccc3c(c1)OCO3)C(=O)CO2 (stereo not shown)	3.21%
CC(=O)N1CCN(c2ccccc2NC(=O)c2ccc(C#N)cc2F)CC1	-7.32%
O=C(c1ccc(OC2CCN(CCc3ccccc3)CC2)cc1)N1CCCC(O)C1 (stereo not shown)	14.4%
O=[N+]([O-])C(C1CCS(=O)(=O)C1)C1CCS(=O)(=O)C1 (stereo not shown)	6.1%
COc1ccc2nc(C)c(C(N)=O)cc2c1	8.62%
COc1cc2c(=O)n(Cc3ccco3)c(=O)n(CC(=O)c3ccc(Br)cc3)c2cc1OC	7.71%
FC(F)(F)c1ccccc1CN1CCN(C2CCCCCC2)CC1.O=C(O)C(=O)O	1.98%
CN(C)CCNS(=O)(=O)c1ccc(N2CCN(c3ccc(F)cc3)CC2)c([N+](=O)[O-])c1	-1.96%
CC(Sc1ncc(C#N)c(N)n1)C(=O)Nc1ccccc1 (stereo not shown)	13.1%
CCOC(=O)CN/C=C(\C#N)c1ccccc1	6.85%
CCOC(=O)c1ccc(NC(=S)Nc2ccccc2)cc1	8.18%
CN(C)C(=O)c1ccc(NC(=O)COC(=O)c2cc3c(s2)CCCCC3)cc1	2.63%
O=C(c1cc(-c2ccc(Cl)cc2)nc2ccccc12)N1CCC1	-21.4%
CSc1ncccc1C(=O)NCC(=O)Nc1ccc(F)c(F)c1	12.1%
COc1ccccc1-c1csc(Cc2nnc3n2CCCCC3)n1	1.85%
Cc1cccc(OCC(=O)Nc2ccc(S(=O)(=O)N3CCN(C)CC3)cc2)c1	16.5%
COC(=O)c1cc2ccsc2n1Cc1cccc(F)c1	-4.33%
